Tests used:
[1] = molecular target: T1, human dopamine D3 receptor (Homo sapiens, UniProt P35462, G9S); details: for Functional selectivity (D3 over D2): Table 5
[2] = molecular target: T1, human dopamine D3 receptor; experiment: cell-based

SMILES | Functional selectivity (D3 over D2) [1] | EC50 [2] | further results
CCCN1CCO[C@H](c2cccc(O)c2)C1.Cl [Example 8, R-(−)-3-(4-Propylmorpholin-2-yl)phenol hydrochloride] | 681-fold |  | D3 selectivity over D2 ([1]; Table 4): 681; D3 over D2 selectivity relative to that shown by pramipexole ([1]; same functional assay): more than 3 times
CCCN1CCOC(c2cc(O)cc(O)c2)C1 (racemic) [Example 15a + 15b (racemate)] | >112-fold | 0.089 µM | 
c1ccc(N2CCN(C[C@H]3CC[C@H](Nc4ncccn4)CC3)CC2)cc1 [trans-[4-[(4-Phenylpiperazin-1-yl)methyl]cyclohexyl]-pyrimidin-2-ylamine] |  | > 0.1 µM | functional D2/D3 preference [1]: D2-preferring agonist; Functional Potency EC50* (nM) D3LGH4 C1 (human) ([1]; Table 4): No effect
CCCN1CCOC(c2ccc(O)c(C(N)=O)c2)C1 (stereo not drawn) [Example 35, 2-Hydroxy-5-(4-propylmorpholin-2-yl)benzamide] | ˜21.0-fold | 0.501 µM | 
CCCNC1CCc2nc(N)sc2C1.Cl.Cl (stereo not drawn) [Pramipexole, 2-amino-4,5,6,7-tetrahydro-6-propylamino-benzthiazole-dihydrochloride] |  | 0.00056 µM | 
CCCN(CCC)CCc1cccc2c1CC(=O)N2 [Ropinirole] |  |  | Dopamine receptor preference ([1]; Table 4): Balanced
CCCN1CCOC(c2cc(O)cc(O)c2)C1 (single isomer, unassigned) [Example 15a, R-5-(4-Propylmorpholin-2-yl)benzene-1,3-diol] | 22.7-fold | 0.077 µM | 
CCCN1CCOC(c2ccc(F)c(O)c2)C1 (single isomer, unassigned) [Example 23a, R-(+)-2-Fluoro-5-(4-propylmorpholin-2-yl)phenol] | >76.9-fold | 0.065 µM | 
CCCN1CCOC(c2ccc(O)c(N)c2)C1 (stereo not drawn) [Example 37, 2-Amino-4-(4-propylmorpholin-2-yl)phenol] | >111.7-fold | 0.895 µM | 
CN[C@@H]1Cc2cccc3[nH]c(=O)n(c23)C1.O=C(O)/C=C\C(=O)O [PNU-95666] |  |  | Dopamine receptor preference ([1]; Table 4): Balanced
CCCN1CCOC(c2ccc(F)c(O)c2)C1 (racemic) [Example 23a + 23b (racemate)] | >76.9-fold | ~0.065 µM | 

From patent US20060052435A1, “Selective dopamin d3 receptor agonists for the treatment of sexual dysfunction” (priority 2001, published 2006)
